# Data: the supplement of paper PMC9446081
# Hit rate of the full screen: of about 39,000 compounds, about 220 (0.56%) showed activity. This is one part of the list.
# Tested on: Escherichia coli K-12 BW25113
# Assay: relative growth (OD600 normalised to plate interquartile mean) (fraction); higher = less growth inhibition, active = 0.2 or less
# Conditions: 50 µM; LB; incubation time: overnight (16-24 h)
# 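Further: static incubation at 37 °C against the wild-type strain, values averaged over two biological replicates.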
row,SMILES,relative growth
1,C[C@H]1CN([C@@H](C)CO)C(=O)c2cc(-c3ccc(F)cc3)cnc2O[C@@H]1CN(C)C(=O)Cc1ccccn1,inactive: 1.03
2,COc1ccc(S(=O)(=O)N(C)C[C@H]2Oc3cc(C#CC4CC4)ccc3S(=O)(=O)N([C@H](C)CO)C[C@H]2C)cc1,inactive: 1.04
3,CN1C(=O)CS(=O)(=O)[C@@H]1c1ccccc1,inactive: 0.995
4,C=CCNC(=O)[C@@H]1[C@H]2C(=O)O[C@H](c3ccccc3)[C@H](c3ccccc3)N2[C@H](c2ccccc2OCCO)[C@@]12C(=O)Nc1ccc(C#Cc3ccc(OC)cc3)cc12,inactive: 1.04
5,C[C@H](CO)N1C[C@H](C)[C@H](CN(C)Cc2ccc(Oc3ccccc3)cc2)Oc2ccc(NS(=O)(=O)c3ccccc3)cc2CC1=O,inactive: 1.02
6,C[C@@H]1CCCCO[C@H](CN(C)S(=O)(=O)c2cn(C)cn2)[C@@H](C)CN([C@@H](C)CO)C(=O)c2cc(NS(C)(=O)=O)ccc2O1,inactive: 0.994
7,CCCCCCCCCCOc1cc2c(O)c(C(=O)OCC)cnc2cc1OCC,inactive: 0.912
8,C[C@@H]1CN([C@H](C)CO)S(=O)(=O)c2ccc(C#Cc3ccc(F)cc3)cc2O[C@@H]1CN(C)CC1CC1,inactive: 0.931
9,O=C(C[C@@H]1C[C@@H]2c3cc(NS(=O)(=O)c4ccc(F)cc4)ccc3O[C@@H]2[C@@H](CO)O1)NCc1ccccc1F,inactive: 1.03
10,CC(=O)OC1(C(C)=O)CCC2C3CC(C)C4=CC(=O)CCC4(C)C3CCC21C (centres undefined),inactive: 0.878
11,COc1ccccc1C#Cc1ccc2c(c1)O[C@H](CN(C)C(C)=O)[C@@H](C)CN([C@H](C)CO)S2(=O)=O,inactive: 0.997
12,CCCNC(=O)N(C)C[C@@H]1Oc2cc(C#Cc3cccc(F)c3)ccc2S(=O)(=O)N([C@H](C)CO)C[C@@H]1C,inactive: 1.01
13,CC(C)NC(=O)Nc1cccc2c1O[C@H](CN(C)C(=O)NC1CCCCC1)[C@H](C)CN([C@@H](C)CO)C2=O,inactive: 0.984
14,O=c1nc[nH]c2ncccc12,inactive: 1.01
15,C[C@H](CO)N1C[C@H](C)[C@@H](CN(C)C(=O)Nc2ccc3c(c2)OCO3)OCCCC[C@H](C)Oc2ccc(NS(=O)(=O)c3ccc(F)cc3)cc2C1=O,inactive: 1.04
16,COc1ccc2c(c1)C(=O)N(CCc1ccc(S(=O)(=O)NC(=O)NC3CCCCC3)cc1)C(=O)C2(C)C,inactive: 1.05
17,COc1ccc2c3c([nH]c2c1)[C@@H](CO)N(C[C@]13CN(Cc2ccccc2)C1)S(=O)(=O)c1cn(cn1)C,inactive: 1.03
18,C[C@H](CO)N1C[C@H](C)[C@H](CN(C)Cc2ccc(Cl)c(Cl)c2)Oc2ccc(NC(=O)CCC(F)(F)F)cc2CC1=O,inactive: 0.997
19,C[C@@H]1CCCCO[C@@H](CN(C)S(=O)(=O)c2ccccc2)[C@@H](C)CN([C@H](C)CO)C(=O)c2cc(NC(=O)Nc3ccccc3)ccc2O1,inactive: 1.01
20,C[C@H](CO)N1C[C@H](C)[C@@H](CN(C)C(=O)Nc2cccc3ccccc23)Oc2ccc(NC(=O)Nc3ccc(F)cc3)cc2C1=O,inactive: 0.924

row,SMILES,relative growth
1,CO[C@H]1CN(C)C(=O)c2ccc(NC(=O)C3CC3)cc2OC[C@@H](C)N(C(=O)Cc2ccccn2)C[C@H]1C,inactive: 0.991
2,CS(=O)(=O)N1[C@@H]2c3cccc(=O)n3C[C@H]1[C@H](CO)[C@H]2C(=O)NCc1ccccc1,inactive: 1.01
3,N#Cc1cccnc1Oc1ccccc1,inactive: 1.03
4,COc1ccc2c3c([nH]c2c1)[C@@H](CO)N(C[C@]13CN(C1)S(=O)(=O)C)C(=O)C1CC1,inactive: 0.977
5,CN1CCN(C(=O)C[C@@H]2C[C@@H]3c4cc(NC(=O)c5ccc6c(c5)OCO6)ccc4O[C@@H]3[C@@H](CO)O2)CC1,inactive: 0.982
6,COc1ccc(CN(C)C[C@@H]2OCCCC[C@H](C)Oc3ccc(NS(=O)(=O)c4ccc(F)cc4)cc3C(=O)N([C@@H](C)CO)C[C@@H]2C)cc1,inactive: 1.01
7,COc1ccc(NC(=O)Nc2ccc3c(c2)[C@@H]2C[C@@H](CC(=O)NCc4ccccn4)O[C@@H](CO)[C@@H]2O3)cc1,inactive: 1.01
8,C[C@@H]1CN([C@@H](C)CO)S(=O)(=O)c2ccc(-c3cccc(F)c3)cc2O[C@H]1CN(C)S(C)(=O)=O,inactive: 1
9,C[C@H]1CCCCO[C@@H](CN(C)CC2CCCCC2)[C@@H](C)CN([C@@H](C)CO)C(=O)c2cc(NC(=O)Nc3ccc(F)cc3)ccc2O1,inactive: 0.99
10,CC(C)[Si](C#CCCCC#N)(O[C@H](c1ccccc1)c1cn(Cc2cccc(Cl)c2)nn1)C(C)C,inactive: 1.01
11,COc1ccc2c(c1)c(-c1ccccc1)nn2-c1ccc(C)cc1,inactive: 0.844
12,CO[C@@H]1CN(C)C(=O)c2cc(NC(=O)CCCC[C@@H]3SC[C@@H]4NC(=O)N[C@@H]43)ccc2OC[C@@H](C)N(Cc2ccc(-c3ccccn3)cc2)C[C@@H]1C,inactive: 0.949
13,C[C@H]1CN([C@@H](C)CO)C(=O)Cc2cc(NS(=O)(=O)c3ccc(Cl)cc3)ccc2O[C@@H]1CN(C)Cc1ccc(Oc2ccccc2)cc1,inactive: 1.01
14,Cc1ccc(S[C@]2(C(=O)NCCCN(C)C)CC(=O)N(C3Cc4ccccc4C3)[C@@H]2c2ccc(CO)cc2I)cc1,inactive: 0.966
15,C[C@@H]1CN([C@H](C)CO)C(=O)c2cc(NC(=O)Nc3ccc(F)cc3)ccc2O[C@@H](C)CCCCO[C@@H]1CN(C)S(=O)(=O)c1ccccc1,inactive: 1.04
16,C[C@@H]1CN([C@H](C)CO)C(=O)c2cc(N(C)C)ccc2O[C@@H](C)CCCCO[C@H]1CN(C)Cc1ccc(C(=O)Nc2ccccc2N)cc1,inactive: 1
17,Cc1nn(C)cc1NC(=O)C[C@@H]1CC[C@H]2[C@H](COc3ccc(NC(=O)C4CCOCC4)cc3C(=O)N2C)O1,inactive: 1
18,NC(=O)Nc1nc2ccccc2[nH]c1=O,inactive: 0.927
19,COc1ccc(CN(C)C[C@@H]2OCCCC[C@@H](C)Oc3ccc(NC(=O)Nc4ccc5c(c4)OCO5)cc3C(=O)N([C@@H](C)CO)C[C@H]2C)cc1,inactive: 1.04
